# Measurements reported in a collection of fitness landscapes (doi:10.1016/j.celrep.2020.107928).
# The full ranking holds about 81,000 sequences; the median of “one-hybrid fitness for binding parS DNA” is about -0.17, and the highest 2% start at about 0.51. Some of the results follow.
# B1: Caulobacter ParB omega fusion; a variant is named by its letters at X, in order, B8GW30 (parent)
# chain: MESVVVGEPGMSEGRRGLGRGLSALLGEVDAAPAQAPGEQLGGSREAPIEILQRNPDQPRRTFREEDLEDLSNSIREKGVLQPILVRPSPDTAGEYQIVAGERAWRAAQRAGLKTVPIMVRELDDLAVLEIGIIENVQRADLNVLEEALSYKVLMEKFERTQENIAQTIGKSXSHVANXMRLLXLPDEVQSYLVSGELTAXHARAIAAAADPVALAKQIIEGGLSVRETEALARKAPNLSAGKSKGGRPPRVKDTDTQALESDLSSVLGLDVSIDHRGSTGTLTITYATLEQLDDLCNRLTRGI
# Variants of: B1
# Assay: one-hybrid fitness for binding parS DNA (scaled: cognate 1, non-cognate 0); higher = stronger binding
# Conditions: with parS DNA site
# Outline: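 Pre- and post-selection plasmids were Illumina-sequenced, three replicate libraries were pooled, and any variant with under 10 reads was removed. The libraries were Caulobacter ParB with four specificity codons randomised, selected in E. coli USO through a HIS3 reporter whose site is 19 bp from the promoter. Cells grew 48 hours at 37°C on M9 without histidine, with 0.1 mM IPTG and 5 mM 3-AT. Fitness is the log change in variant-to-wild-type read ratio, rescaled against cognate and non-cognate.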
row,Variant,one-hybrid fitness for binding parS DNA
1,CNRE,≤ 0.2
2,RWGP,≤ 0.2
3,NTYD,≤ 0.2
4,QTHI,≤ 0.2
5,RPNN,≤ 0.2
6,CDDA,≤ 0.2
7,DPHC,≤ 0.2
8,QWMR,≤ 0.2
9,FKAC,≤ 0.2
10,KPAT,≤ 0.2
11,FTVP,≤ 0.2
12,NYYS,≤ 0.2
13,PTGG,≤ 0.2
14,QCLD,≤ 0.2
15,QTVY,≤ 0.2
16,QWGF,≤ 0.2
17,HVQG,≤ 0.2
18,GCCT,≤ 0.2
19,MYPS,≤ 0.2
20,LVAG,≤ 0.2
21,QRCF,≤ 0.2

row,Variant,one-hybrid fitness for binding parS DNA
1,RFQT,0.8
2,CLCC,≤ 0.2
3,RCEK,≤ 0.2
4,HMSV,≤ 0.2
5,PSQP,≤ 0.2
6,RWSW,≤ 0.2
7,RPNP,≤ 0.2
8,GRSV,≤ 0.2
9,IRCM,≤ 0.2
10,ARNR,≤ 0.2
11,TSLG,≤ 0.2
12,VVFN,0.254
13,FTLD,≤ 0.2
14,NMYE,≤ 0.2
15,VWQT,≤ 0.2
16,MNHR,≤ 0.2
17,KTQG,≤ 0.2
18,KDAR,≤ 0.2
19,GQPV,≤ 0.2
20,TNAP,≤ 0.2
21,QKSV,≤ 0.2

row,Variant,one-hybrid fitness for binding parS DNA
1,MTTF,≤ 0.2
2,GYAS,≤ 0.2
3,STNE,≤ 0.2
4,AERS,≤ 0.2
5,YGSY,≤ 0.2
6,KNQS,≤ 0.2
7,KWEI,≤ 0.2
8,RFFG,0.776
9,RPTA,≤ 0.2
10,HNYR,≤ 0.2
11,PSKA,≤ 0.2
12,TPFV,≤ 0.2
13,NRSV,≤ 0.2
14,PMPR,≤ 0.2
15,SSMP,≤ 0.2
16,WILR,≤ 0.2
17,RTTG,1
18,MLHT,≤ 0.2
19,DEHS,≤ 0.2
20,CSAC,≤ 0.2
21,TMSD,≤ 0.2

row,Variant,one-hybrid fitness for binding parS DNA
1,PGYG,≤ 0.2
2,LPMI,≤ 0.2
3,ADSR,≤ 0.2
4,SDDM,≤ 0.2
5,AGTN,≤ 0.2
6,YEAS,≤ 0.2
7,YKPK,≤ 0.2
8,RLNE,≤ 0.2
9,GICG,≤ 0.2
10,PNEC,≤ 0.2
11,CLPD,≤ 0.2
12,LHDW,≤ 0.2
13,TYPV,≤ 0.2
14,TFHD,≤ 0.2
15,QDTY,≤ 0.2
16,CLIS,≤ 0.2
17,TRIN,≤ 0.2
18,PTAG,≤ 0.2
19,TMWR,≤ 0.2
20,RPVN,≤ 0.2
21,PTFG,≤ 0.2
